± gives the standard deviation of the averaged measurements. The list shows a part of the results.
System: PfAP2-G AP2 domain (GST-tagged)
Experiment: gcPBM binding intensity (ln(normalized median fluorescence intensity)); higher = stronger DNA binding
How it was run: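 GST-tagged P. falciparum DNA-binding domains produced in E. coli were incubated for 1 h on an Agilent 4 × 180k array of primer-extended double-stranded 36-bp intergenic genomic probes with negative controls. Binding intensity is the highest Masliner-normalised natural-log median intensity across replicate spots of either probe orientation, with bound protein detected by Alexa488 anti-GST antibody at 488 nm.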

| Sequence | gcPBM binding intensity (ln) |
| --- | --- |
| TTTGTAGCACTTAAGAGTACAAAATGTATAAGATTT [XGTACX_site2321] | 11.2 ± 0.81 |
| TTAATATAATTAAAATGTACTTATTTGTAAACATTA [XGTACX_site6313] | 11.1 ± 0.79 |
| TAATTATAGGTATACACACACATACATTTACATAAC [CACACA_site7509] | 10.3 ± 0.17 |
| TTTTATTATTTTTGTTGTACAGTATACTGTATGATT [XGTACX_site5359] | 11.4 ± 0.81 |
| AAAAAAATATATATATATATATATATATTATATATG [GTGCAC_negctrl_site654] | 9.565 ± 0.078 |
| TTTAAAAAAAAAAAAAAAAAAAAAAAAAAAAATTTG [CACACA_negctrl_site1235] | 9.55 ± 0.042 |
| TAAAACAAAAAAAAGATGCACTATTTATTTTATTAT | 9.885 ± 0.021 |
| AACAAACACAGACACACACACACACTAATATGATTA [CACACA_site8770] | 10.2 ± 0.25 |
| ATATACTATTATGTGTGTACATAATAATTTATTATA [XGTACX_site3776] | 11.3 ± 0.91 |
| TCATACATTTTCCTTGCACACATTTATAATTAATGG [CACACA_site4511] | 10.3 ± 0.16 |
| ATATAAGAACAAAATTGTACATAAATATTTATATAA [XGTACX_site7404] | 10.8 ± 0.54 |
| TTATCACATTATTGCACACACATAAAGAAAAAAATA [CACACA_site2841] | 10.4 ± 0.5 |
| AATAAAAAGAAACACACACACACACCCATATATATA [CACACA_site3589] | 10 ± 0.16 |
| AAAGATACTTTCCTCAAACACACAAAACTATACAAC [CACACA_site1475] | 10.3 ± 0.18 |
| TGAGAAAAAAAGAATTGTACATATAAAATATAACAA [XGTACX_site3500] | 10.9 ± 0.69 |
| AAAAAAAAGGAAAATAAAAATAAAAAAAAATAATAA [XGTACX_negctrl_site601] | 9.585 ± 0.064 |
| TTATTTATACGCTATGAGTTTGATACAAACAATTAA [XGTACX_negctrl_site456] | 10.2 ± 0.23 |
| TTTTTACGGAATTAGAGAAAAGAAATAAAAAAAAAA [XGTACX_negctrl_site436] | 9.91 ± 0.19 |
| TTTATATTTATGTAGGTGCATTTGTTTACAACATAT [GTGCAC_site9511] | 10.2 ± 0.2 |

| Sequence | gcPBM binding intensity (ln) |
| --- | --- |
| TAGTTATCACATTGCACACACATTTCCTTTTACATT [CACACA_site7589] | 10.225 ± 0.007 |
| AATAAATTCATGATAGTGCAAAAATTATTTTTGTTA | 9.725 ± 0.007 |
| GCATAACCTTTATATTGTACATATACCTTTATTGTT [XGTACX_site6046] | 10.9 ± 0.38 |
| ACGTTAAAAACAAGTTGTACACAATAAATTATTCTT [XGTACX_site6321] | 11.5 ± 0.92 |
| TTTTTTGTTATTTTCCGTTTTTTTCCATTATAATTT [GTGCAC_negctrl_site461] | 10.12 ± 0.085 |
| TATTCAAAGAAAAACTGTACGTGTAGCCTACATCCT [XGTACX_site7707] | 11.4 ± 0.93 |
| ATTATCCATCAAAAGGTGCAAATTTTTAATTATAAA [GTGCAC_site9932] | 10.1 ± 0.34 |
| TGAGTCTTTTACATTGCACACACATTTCTTTCCTTT [CACACA_site8978] | 10.1 |
| AAAGATGATAAAATATGTACACACAGTTTATACATT [XGTACX_site8703] | 11.4 ± 0.76 |
| TCTTATATTATATTGTGTATTAAAATTTAACTTCAA [TGCATGCA_negctrl_site565] | 9.99 ± 0.13 |
| TTAAAGTTACATTCGACACACACATAACAACTAAAT [CACACA_site9130] | 10.23 ± 0.085 |
| ATATATATAAACAAAAGTACATATATAAATTCATTT [XGTACX_site3482] | 11.1 ± 0.75 |
| GTTTATATTTAATTTTTTTGTTTTTTTGTGTAATTC [XGTACX_negctrl_site194] | 9.65 ± 0.2 |
| TATTTATACTAATATGCATGTAATCGAAATACAGCT [TGCATGCA_site457] | 9.685 ± 0.078 |
| ACAAATAAATAAATATGTACTTAATTATATAATTGA [XGTACX_site5626] | 11.2 ± 0.61 |
| ATATATGTATATATGTACATGAATATATAAAGAAAA [CACACA_negctrl_site315] | 11.1 ± 0.67 |
| TAATTTTTTTTTTATAGTACACATATTAAAGAATTA [XGTACX_site2485] | 11.3 ± 1 |
| ATCTATTCACACTTTTAAAAATTAAATATATTATAT [TGCATGCA_negctrl_site610] | 10.1 ± 0.18 |
| AATAAAAAAAAAATATATATTTTTTTTTTTTTTTTT [CACACA_negctrl_site54] | 10.07 ± 0.092 |

| Sequence | gcPBM binding intensity (ln) |
| --- | --- |
| GGAATATTAATAAGAGTGCATTTTGTATTCAATATG | 10.07 ± 0.092 |
| TAGACTGGACATTAATGTACATAAATATATATGTAT [XGTACX_site7726] | 11.1 ± 0.72 |
| TATAAGAAAAATAACACACACATAAACATATATACA [CACACA_site2785] | 10.09 ± 0.092 |
| AAAAAAAAAATTCATTGTACATATATATATATATAT [XGTACX_site8346] | 10.8 ± 0.75 |
| GTATATATTAAAAAAAAAAAAAAAAAATTAAAATTA [CACACA_negctrl_site572] | 9.35 ± 0.11 |
| ATAAGAAGAAGAAAAACACACATATGTAGATATATA [CACACA_site7469] | 9.79 ± 0.18 |
| ATATATATATATATATGTACTTATTTATATATTTAT [XGTACX_site7811] | 11.2 ± 0.79 |
| TGGTTATTTATCTTTATTATAAATATTTACAAATAA [CACACA_negctrl_site1773] | 9.94 ± 0.24 |
| TAAATATTTAAATATTGTACTAGGTATAATTGAATA [XGTACX_site3604] | 10.8 ± 0.59 |
| ATAAAAATAAAAAACTGTACATACAAGATGTTACAG [XGTACX_site6690] | 11 ± 0.71 |
| ATGCTTCCTTAGGAATGTACACACATATATAATATG [XGTACX_site873] | 11.2 ± 0.69 |
| AAATAATATTTTACATGTACATAATAATTATTGGAT [XGTACX_site2783] | 11.1 ± 0.51 |
| TTATTGTACTTGCTCGCATGCAATAAAAATATATTA [TGCATGCA_site580] | 11.2 ± 1.1 |
| ATTATTAATAATTGTGTGCACAAATATTTATATGCT | 10.5 ± 0.37 |
| ATATCAATATAAAGTACACACTATAGTATGTATTAT [CACACA_site5286] | 11.6 ± 1.1 |
| ATATTGTATTATCTTTATGTACCAAAAAAAAAAAAA [CACACA_negctrl_site1036] | 10.9 ± 0.69 |
| TAAAGGATTTTCGAAGCATGCCACCTGTGACATACT [TGCATGCA_site130] | 9.86 ± 0.014 |
| TTCTTTTTAAATTACACACACATATATATCTGTATA [CACACA_site5863] | 9.91 ± 0.11 |
